The results in this text go back to patent publication US20220125947A1.

In the test the target is TCR Vδ2 (TRDV2) on T cells in PBMCs (human), A0JD36. As to the kind of experiment: cell-based or functional assay.
Chain of TCR Vδ2 (TRDV2) on T cells in PBMCs (human), A0JD36 (A0JD36 20-115, stated change not applied): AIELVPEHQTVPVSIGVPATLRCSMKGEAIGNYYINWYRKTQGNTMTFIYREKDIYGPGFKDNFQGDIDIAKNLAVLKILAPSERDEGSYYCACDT

B1: VG9B454 (antibody, human IgG1, lambda)
heavy: QVQLQESGPGLVKPSETLSLTCTVSGGSISNYYWSWIRQPAGKGLGWIGRIYSSGITNYNPSLKSRVTMSVDTSKNQLSLKLSSVTAADTAVYYCAGIVGVKGAFAIWGQGTMVTVSS[human IgG1 constant region omitted here]
light: QAVLTQPASVSGSPGQSITISCTGTSSDVGGYNYVSWYQQHPGKAPKLMIYEVSNRPSGVSNRFSGSKSGNTASLTISGLQAEDEADYYCSSYTSTSVVFGGGTKLTVLGQPKAAPSVTLFPPSSEELQANKATLVCLISDFYPGAVTVAWKADSSPVKAGVETTTPSKQSNNKYAASSYLSLTPEQWKSHRSYSCQVTHEGSTVEKTVAPTECS
Regarding B1, the Flow Staining: CD25+ (Vg9+ cells) was found to be 39.9%, the Flow Staining: CD71+ (Vg9+ cells) amounted to 92.7%, the Flow Staining: Vg9 T cell % turned out to be 5% and the Luninex (supernatant): Granzyme B came out at 2480. The same molecule gave a Luninex (supernatant): IFNγ of 1220, a Luninex (supernatant): IL6 of 458 and a Luninex (supernatant): TNFα of 2060.

B2: VG9B455 (antibody, human IgG1, lambda)
heavy: QVQLVESGPGLVKPSETLSLTCTVSGGSISNYYWSWIRQPAGKGLGWIGRIYSSGITNYNPSLKSRVTMSVDTSKNQLSLKLSSVTAADTAVYYCAGIVGVKGAFAIWGQGTMVTVSS[human IgG1 constant region omitted here]
light: SYELTQPASVSGSPGQSITISCTGTSSDVGGYNYVSWYQQHPGKAPKLMIYEVSNRPSGVSNRFSGSKSGNTASLTISGLQAEDEADYYCSSYTSTSVVFGGGTKLTVLGQPKAAPSVTLFPPSSEELQANKATLVCLISDFYPGAVTVAWKADSSPVKAGVETTTPSKQSNNKYAASSYLSLTPEQWKSHRSYSCQVTHEGSTVEKTVAPTECS
In the case of B2, the Flow Staining: CD25+ (Vg9+ cells) stood at 24.2%, the Flow Staining: CD71+ (Vg9+ cells) was determined as 77.3%, the Flow Staining: Vg9 T cell % stood at 2.6% and the Luninex (supernatant): Granzyme B came out at 9280. Also, the Luninex (supernatant): IFNγ came to 2730, the Luninex (supernatant): IL6 amounted to 1580 and the Luninex (supernatant): TNFα is 7050.

B3: VG9B439 (antibody, human IgG1, lambda)
heavy: QVQLQQSGPGLVKPSETLSLTCTVSGGSISNYYWSWIRQPAGKGLGWIGRIYSSGITNYNPSLKSRVTMSVDTSKNQLSLKLSSVTAADTAVYYCAGIVGVKGAFAIWGQGTMVTVSS[human IgG1 constant region omitted here]
light: QSALTQPASVSGSPGQSITISCTGTSSDVGGYNYVSWYQQHPGKAPKLMIYEVSNRPSGVSNRFSGSKSGNTASLTISGLQAEDEADYYCSSYTSTSVVFGGGTKLTVLGQPKAAPSVTLFPPSSEELQANKATLVCLISDFYPGAVTVAWKADSSPVKAGVETTTPSKQSNNKYAASSYLSLTPEQWKSHRSYSCQVTHEGSTVEKTVAPTECS
For B3, the Flow Staining: CD25+ (Vg9+ cells) is 13.8%, the Flow Staining: CD71+ (Vg9+ cells) stood at 86%, the Flow Staining: Vg9 T cell % was found to be 3.9% and the Luninex (supernatant): Granzyme B amounted to 760. This molecule had a Luninex (supernatant): IFNγ of 167, a Luninex (supernatant): IL6 of 140 and a Luninex (supernatant): TNFα of 190.

B4: VG9B453 (antibody, human IgG1, lambda)
heavy: QVQLQQSGPGLVKPSETLSLTCTVSGGSISNYYWSWIRQPAGKGLGWIGRIYSSGITNYNPSLKSRVTMSVDTSKNQLSLKLSSVTAADTAVYYCAGIVGVKGAFAIWGQGTMVTVSS[human IgG1 constant region omitted here]
light: QSALTQPASVSGSPGQSITISCTGTSSDVGGYNYVSWYQQHPGKAPKLMIYEVSNRPSGVSNRFSGSKSGNTASLTISGLQAEDEADYYCSSYTSTSVVFGGGTKVTVLGQPKAAPSVTLFPPSSEELQANKATLVCLISDFYPGAVTVAWKADSSPVKAGVETTTPSKQSNNKYAASSYLSLTPEQWKSHRSYSCQVTHEGSTVEKTVAPTECS
As for B4, the Flow Staining: CD25+ (Vg9+ cells) was 29.7%, the Flow Staining: CD71+ (Vg9+ cells) came out at 87.9%, the Flow Staining: Vg9 T cell % worked out at 3% and the Luninex (supernatant): Granzyme B was found to be 3300. The molecule also gave a Luninex (supernatant): IFNγ of 1670, a Luninex (supernatant): IL6 of 612 and a Luninex (supernatant): TNFα of 5760.

B5: VG9B459 (antibody, human IgG1, lambda)
heavy: QVQLQESGPGLVKPSETLSLTCTVSGGSISNYYWSWIRQPAGKGLGWIGRIYSSGITNYNPSLKSRVTMSVDTSKNQLSLKLSSVTAADTAVYYCAGIVGVKGAFAIWGQGTMVTVSS[human IgG1 constant region omitted here]
light: QPVLTQPASVSGSPGQSITISCTGTSSDVGGYNYVSWYQQHPGKAPKLMIYEVSNRPSGVSNRFSGSKSGNTASLTISGLQAEDEADYYCSSYTSTSVVFGGGTKLTVLGQPKAAPSVTLFPPSSEELQANKATLVCLISDFYPGAVTVAWKADSSPVKAGVETTTPSKQSNNKYAASSYLSLTPEQWKSHRSYSCQVTHEGSTVEKTVAPTECS
B5 registered a Flow Staining: CD25+ (Vg9+ cells) of 24.2%, a Flow Staining: CD71+ (Vg9+ cells) of 86.6%, a Flow Staining: Vg9 T cell % of 2.9% and a Luninex (supernatant): Granzyme B of 2320. In addition, the Luninex (supernatant): IFNγ was determined as 1060, the Luninex (supernatant): IL6 came out at 409 and the Luninex (supernatant): TNFα came to 1590.

B6: VG9B449 (antibody, human IgG1, lambda)
heavy: QVQLQESGPGLVKPSETLSLTCTVSGGSISNYYWSWIRQPAGKGLGWIGRIYSSGITNYNPSLKSRVTMSVDTSKNQLSLKLSSVTAADTAVYYCAGIVGVKGAFAIWGQGTMVTVSS[human IgG1 constant region omitted here]
light: QAVLTQPASVSGSPGQSITISCTGTSSDVGGYNYVSWYQQHPGKAPKLMIYEVSNRPSGVSNRFSGSKSGNTASLTISGLQAEDEADYYCSSYTSTSVVFGGGTKVTVLGQPKAAPSVTLFPPSSEELQANKATLVCLISDFYPGAVTVAWKADSSPVKAGVETTTPSKQSNNKYAASSYLSLTPEQWKSHRSYSCQVTHEGSTVEKTVAPTECS
For the molecule B6, the Flow Staining: CD25+ (Vg9+ cells) turned out to be 16.3%, the Flow Staining: CD71+ (Vg9+ cells) turned out to be 87.2%, the Flow Staining: Vg9 T cell % was 3.5% and the Luninex (supernatant): Granzyme B was found to be 1090. The molecule further had a Luninex (supernatant): IFNγ of 256, a Luninex (supernatant): IL6 of 131 and a Luninex (supernatant): TNFα of 266.

B7: VG9B443 (antibody, human IgG1, lambda)
heavy: QVQLQESGPGLVKPSETLSLTCTVSGGSISNYYWSWIRQPAGKGLGWIGRIYSSGITNYNPSLKSRVTMSVDTSKNQLSLKLSSVTAADTAVYYCAGIVGVKGAFAIWGQGTMVTVSS[human IgG1 constant region omitted here]
light: QSALTQPASVSGSPGQSITISCTGTSSDVGGYNYVSWYQQHPGKAPKLMIYEVSNRPSGVSNRFSGSKSGNTASLTISGLQAEDEADYYCSSYTSTSVVFGGGTKLTVLGQPKAAPSVTLFPPSSEELQANKATLVCLISDFYPGAVTVAWKADSSPVKAGVETTTPSKQSNNKYAASSYLSLTPEQWKSHRSYSCQVTHEGSTVEKTVAPTECS
Take B7: the Flow Staining: CD25+ (Vg9+ cells) was 33.6%, the Flow Staining: CD71+ (Vg9+ cells) is 86%, the Flow Staining: Vg9 T cell % came to 3.8% and the Luninex (supernatant): Granzyme B was determined as 2550. The molecule further came in with a Luninex (supernatant): IFNγ of 1170, a Luninex (supernatant): IL6 of 860 and a Luninex (supernatant): TNFα of 5110.

B8: VG9B163 (antibody, human IgG1, lambda)
heavy: QVQLVQSGGGLVKPGASLKLSCAASGFTFSNHGMSWVRQTSDKRLEWVASITRGGDTTYYPDNVKGRFTISRENAKNTLYLQMSSLKSDDTALYYCTRGPLTVGYAMDYWGQGTTVTVSS[human IgG1 constant region omitted here]
light: QLVLTQPPSVSAAPGQKVTISCSGNSSNIGHNYVSWYQQLPGTAPKLLIYDNNQRPSGIPDRFSGSKSDTSATLGITGLQTGDEADYYCGIWDSSLSIVVFGGGTKVTVLGQPKAAPSVTLFPPSSEELQANKATLVCLISDFYPGAVTVAWKADSSPVKAGVETTTPSKQSNNKYAASSYLSLTPEQWKSHRSYSCQVTHEGSTVEKTVAPTECS
B8: the Flow Staining: CD25+ (Vg9+ cells) came out at 9.7%, the Flow Staining: CD71+ (Vg9+ cells) was found to be 75.9%, the Flow Staining: Vg9 T cell % stood at 3.7% and the Luninex (supernatant): Granzyme B turned out to be 41. Also, the Luninex (supernatant): IL6 turned out to be 5 and the Luninex (supernatant): TNFα was 9.

B9: VG9B157 (antibody, human IgG1, lambda)
heavy: EVQLLESGGGLVKPGASLKLSCAASGFTFSNHGMSWVRQTSDKRLEWVASITRGGDTTYYPDNVKGRFTISRENAKNTLYLQMSSLKSDDTALYYCTRGPLTVGYAMDYWGQGTTVTVSS[human IgG1 constant region omitted here]
light: SSELTQDPAVSVALGQTVRITCQGDSLRSYYATWYQQKPGQAPILVIYGENNRPSGIPDRFSGSRSGNTASLTITGAQAEDEADYYCNSRDTGDHHLVFGGGTKLTVLGQPKAAPSVTLFPPSSEELQANKATLVCLISDFYPGAVTVAWKADSSPVKAGVETTTPSKQSNNKYAASSYLSLTPEQWKSHRSYSCQVTHEGSTVEKTVAPTECS
In the case of B9, the Flow Staining: CD25+ (Vg9+ cells) was 13.1%, the Flow Staining: CD71+ (Vg9+ cells) was 78.3%, the Flow Staining: Vg9 T cell % was determined as 3.3% and the Luninex (supernatant): Granzyme B came to 115. The molecule also had a Luninex (supernatant): IFNγ of 36, a Luninex (supernatant): IL6 of 606 and a Luninex (supernatant): TNFα of 74.

B10: VG9B68 (antibody, human IgG1, kappa)
heavy: EVQLVESGAEVKKPGSSVKVSCKASGGTFSTYAISWVRQAPGQGLEWMGGIIPIFGTATYAQRFQDRVMITADKSTTTAYMELSSLRSEDTAVFYCARGVGWGSDYYYGLDVWGQGTMVTVSS[human IgG1 constant region omitted here]
light: EIVMTQSPLSSPVTLGQPASISCRSSQSLVHSDGNTYLSWLQQRPGQSPRLLIYKISNRFSGVPDRFSGSGAGTDFTLRITRVEPEDVGVYYCIQATHHPLTFGGGTRLEIKRTVAAPSVFIFPPSDEQLKSGTASVVCLLNNFYPREAKVQWKVDNALQSGNSQESVTEQDSKDSTYSLSSTLTLSKADYEKHKVYACEVTHQGLSSPVTKSFNRGEC
As for B10, the Flow Staining: CD25+ (Vg9+ cells) was 35.6%, the Flow Staining: CD71+ (Vg9+ cells) worked out at 93.5%, the Flow Staining: Vg9 T cell % was 9.3% and the Luninex (supernatant): Granzyme B amounted to 4200. This molecule also showed a Luninex (supernatant): IFNγ of 1540, a Luninex (supernatant): IL6 of 539 and a Luninex (supernatant): TNFα of 6830.
